Measured values as given in patent publication US20210238298A1 (ALLIGATOR BIOSCIENCE, published 2021).

Columns and labels:
CTLA-4 (BMS, Orencia) [1] = target: T1, CTLA-4 (BMS, Orencia) (human, UniProt P16410 38-152); assay: cell-based or functional assay
CTLA-4 (BMS, Orencia) [2] = target: T1, CTLA-4 (BMS, Orencia); assay: cell-based or functional assay; remark: listed apart in the source
[3] = target: T2, recombinant human CD137-Fc (R&D #838-4B) (human, UniProt Q07011 24-186); assay: dual ELISA: rhCD137-Fc coated, bispecific antibody in dilutions, biotinylated CTLA-4 (1 ug/ml), HRP-streptavidin; the signal needs both bindings at once
T2 construct: Bought; also called Human CD137 (R&D systems); CD137 (R&D Systems); not shown: Fc part, not described
T2 sequence (Q07011 24-186 limits assumed): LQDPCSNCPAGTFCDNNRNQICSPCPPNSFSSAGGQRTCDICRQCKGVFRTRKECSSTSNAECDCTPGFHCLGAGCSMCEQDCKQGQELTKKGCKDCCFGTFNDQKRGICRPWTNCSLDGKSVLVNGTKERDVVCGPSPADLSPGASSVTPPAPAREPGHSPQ

T1 sequence (P16410 38-152 limits assumed): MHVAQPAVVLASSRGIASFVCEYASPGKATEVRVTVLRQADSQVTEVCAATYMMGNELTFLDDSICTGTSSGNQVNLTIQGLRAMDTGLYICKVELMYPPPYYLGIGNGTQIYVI

Row | Fold change in IL-2 level induced by bispecific molecule compared to the corresponding combination of the monospecific molecules at 1.5 nM (CTLA-4 (BMS, Orencia) [1]) [fold] | Mean IL-2 level (pg/ml) induced at 1.5 nM (CTLA-4 (BMS, Orencia) [2]) [pg/mL] | EC50 (read off the curve) [3] [pM] | Binder
1 | 5.5 | 5110 | – | bispecific molecule 1514/1581 (OX40 x CTLA-4) (bispecific antibody, human IgG1, kappa) heavy: EVQLLESGGGLVQPGGSLRLSCAASGFTFGYYYMSWVRQAPGKGLEWVSGISSYGSYTYYADSVKGRFTISRDNSKNTLYLQMNSLRAEDTAVYYCARSGYSNWANSFDYWGQGTLVTVSS[… human IgG1 constant region …] light: DIQMTQSPSSLSASVGDRVTITCRASQSISSYLNWYQQKPGKAPKLLIYAASSLQSGVPSRFSGSGSGTDFTLTISSLQPEDFATYYCQQGDYTLFTFGQGTKLEIKRTVAAPSVFIFPPSDEQLKSGTASVVCLLNNFYPREAKVQWKVDNALQSGNSQESVTEQDSKDSTYSLSSTLTLSKADYEKHKVYACEVTHQGLSSPVTKSFNRGECSGGGGSGGGGSAPLKIQAYFNETADLPCQFANSQNLSLSELVVFWQDQENLVLNEVYLGKERFDSVDSKYMGRTSFDSDSWTLRLHNLQIKDKGRYQCIIHHKKPTGMINIHQMNSELSVLA
2 | – | – | ~700 | 1618-1765 (bispecific antibody, CD137 x CTLA-4 bispecific polypeptide) heavy: EVQLLESGGGLVQPGGSLRLSCAASGFTFSYGSMYWVRQAPGKGLEWVSSISSGSGSTYYADSVKGRFTISRDNSKNTLYLQMNSLRAEDTAVYYCARSSYYGSYYSIDYWGQGTLVTVSS[… human IgG1 constant region …] light: DIQMTQSPSSLSASVGDRVTITCRASQSISSYLNWYQQKPGKAPKLLIYAASSLQSGVPSRFSGSGSGTDFTLTISSLQPEDFATYYCQQYYDNLPTFGQGTKLEIKRTVAAPSVFIFPPSDEQLKSGTASVVCLLNNFYPREAKVQWKVDNALQSGNSQESVTEQDSKDSTYSLSSTLTLSKADYEKHKVYACEVTHQGLSSPVTKSFNRGECSGGGGSGGGGSAPLKIQAYFNETADLPCQFANSQNLSLSELVVFWQDQENLVLNEVYLGKERFDSVDSKYMGRTSFDSDSWTLRLHNLQIKDKGRYQCIIHHKKPTGMINIHQMNSELSVLA
3 | 7.8 | 4290 | – | bispecific molecule 1166/1261 (OX40 x CTLA-4) (bispecific antibody, human IgG1, kappa) heavy: EVQLLESGGGLVQPGGSLRLSCAASGFTFGGYYMSWVRQAPGKGLEWVSAISGSGGSTYYADSVKGRFTISRDNSKNTLYLQMNSLRAEDTAVYYCARYDYASMDYWGQGTLVTVSS[… human IgG1 constant region …] light: DIQMTQSPSSLSASVGDRVTITCRASQSISSYLNWYQQKPGKAPKLLIYAASSLQSGVPSRFSGSGSGTDFTLTISSLQPEDFATYYCQQYYWYGLSTFGQGTKLEIKRTVAAPSVFIFPPSDEQLKSGTASVVCLLNNFYPREAKVQWKVDNALQSGNSQESVTEQDSKDSTYSLSSTLTLSKADYEKHKVYACEVTHQGLSSPVTKSFNRGECSGGGGSGGGGSAPLKIQAYFNETADLPCQFANSQNLSLSELVVFWQDQENLVLNEVYLGKERFDSVDSKYMGRTSFDSDSWTLRLHNLQIKDKGRYQCIIHHKKPTGMINIHQMNSELSVLA
